# Values joined by “and” are separate entries in the source; they are usually repeats but may differ in a detail not shown here. Equal entries are not always repeated. This list was built around the results that the source calls inconclusive (neither active nor inactive); the mix of calls is not that of the screen. Where the call is inconclusive, the potency comes from a doubtful curve fit. Active and inactive are the calls of the source. The call rests on the fitted dose curve; in most records, active means well fitted curve in the direction sought with a large enough effect; inconclusive means small, poorly fitted or top-dose-only effect, or another doubt; inactive means no such curve, though single readings can be large; an effect the other way counts as inactive or inconclusive.
# Columns and labels:
# [1] = qHTS of pediatric cancer cell lines to identify multiple opportunities for drug repurposing: Primary screen for Rh30 cells (AID 1347107); further: nearly all actives have a fitted effect of over 75% in size
# Procedure, shortened: (§1)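 Viability after 48 h compound treatment at 37C, 500-1,000 cells/well, read as ATP luminescence with CellTiter-Glo. Primary screens used 11-point (MIPE, 0.78 nM-46 µM) or 8-point (NPC, 0.59 nM-46 µM) final concentrations; follow-up screens used 11-point dilutions.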
# [2] = qHTS of pediatric cancer cell lines to identify multiple opportunities for drug repurposing: Primary screen for Rh41 cells (AID 1347108); further: nearly all actives have a fitted effect of over 70% in size
# Procedure, shortened: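 Phenotypic viability qHTS, 48 h compound exposure, CellTiter-Glo luminescence read-out; multi-concentration dosing so that potency and efficacy derive directly from the primary screen's curves.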
# [3] = qHTS of pediatric cancer cell lines to identify multiple opportunities for drug repurposing: Confirmatory screen for NB1643 cells (AID 1347109); conditions: NB1643 neuroblastoma cell viability; series mostly up to 45.9 µM; further: nearly all actives have a fitted effect of over 45% in size
# Procedure, shortened: as §1
# [4] = qHTS of pediatric cancer cell lines to identify multiple opportunities for drug repurposing: Confirmatory screen for A673 cells (AID 1347110); further: nearly all actives have a fitted effect of over 65% in size
# Procedure, shortened: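 Cells plated at 500-1,000/well were treated five hours later with multi-point dilutions up to 46 µM final. After two days, CellTiter-Glo was added and luminescence read.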
# [5] = qHTS of pediatric cancer cell lines to identify multiple opportunities for drug repurposing: Confirmatory screen for SK-N-MC cells (AID 1347111);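 further: cells exposed to compound for 48 h before the readout; nearly all actives have a fitted effect of over 70% in size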
# Procedure, shortened: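 SK-N-MC cells at 500-1,000 cells/well in growth media were pre-incubated 5 h, then exposed to compounds at 11-point dilutions for 48 h at 37 degrees C, 5% CO2. Viability was read as CellTiter-Glo luminescence.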
# [6] = qHTS of pediatric cancer cell lines to identify multiple opportunities for drug repurposing: Confirmatory screen for BT-12 cells (AID 1347112); further: nearly all actives have a fitted effect of over 55% in size
# Procedure, shortened: as §1
# [7] = qHTS of pediatric cancer cell lines to identify multiple opportunities for drug repurposing: Confirmatory screen for LAN-5 cells (AID 1347113); further: nearly all actives have a fitted effect of over 65% in size
# Procedure, shortened: as §1
# [8] = qHTS of pediatric cancer cell lines to identify multiple opportunities for drug repurposing: Confirmatory screen for DAOY cells (AID 1347114); further: nearly all actives have a fitted effect of over 65% in size
# Procedure, shortened: (§2)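 Viability measured as metabolically active cells via CellTiter-Glo luminescence following 48 hours of compound exposure, 11-point dilutions in confirmatory testing. 500-1,000 cells/well plated 5 hours before dosing; controls were DMSO and 2.3 µM bortezomib.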
# [9] = qHTS of pediatric cancer cell lines to identify multiple opportunities for drug repurposing: Confirmatory screen for SJ-GBM2 cells (AID 1347116); further: nearly all actives have a fitted effect of over 60% in size
# Procedure, shortened: as §2
# [10] = qHTS of pediatric cancer cell lines to identify multiple opportunities for drug repurposing: Confirmatory screen for NB-EBc1 cells (AID 1347115); further: nearly all actives have a fitted effect of over 45% in size
# Procedure, shortened: as §1
# Potency means the concentration at half of the fitted maximal effect; tags describe the fitted curve by direction and shape.
SMILES,Potency [1],Potency [2],Potency [3],Potency [4],Potency [5],Potency [6],Potency [7],Potency [8],Potency [9],Potency [10]
CN1CCCC(n2nc(Cc3ccc(Cl)cc3)c3ccccc3c2=O)CC1 (configuration not stated),"inconclusive: 3.72 µM [cytotoxic, full curve]","inconclusive: 1.48 µM [cytotoxic, full curve]","inconclusive: 36.9 µM [cytotoxic, single point]",active: 9.27 µM,active: 23.3 µM,"inconclusive: 26.1 µM [cytotoxic, partial curve]","inconclusive: 29.3 µM [cytotoxic, single point]","inconclusive: 20.8 µM [cytotoxic, single point]","inconclusive: 1.04 µM [rising, full curve]",
CSc1ccc2c(c1)N(CCC1CCCCN1C)c1ccccc1S2 (configuration not stated),"inconclusive: 18.8 µM [cytotoxic, single point]","inconclusive: 26.6 µM [cytotoxic, single point]",,,,,,,,
C1CCC(C(CC2CCCCN2)C2CCCCC2)CC1 (configuration not stated),"inconclusive: 29.9 µM [cytotoxic, single point]","inconclusive: 18.8 µM [cytotoxic, single point] and inconclusive: 29.6 µM [cytotoxic, single point]",,,,,,,,
O=C1Nc2ccc(I)cc2C1=Cc1cc(Br)c(O)c(Br)c1,inactive,"inconclusive: 14.8 µM [cytotoxic, partial curve]","inconclusive: 23.3 µM [cytotoxic, single point]",active: 11.7 µM,inactive,,"inconclusive: 11.7 µM [rising, partial curve, poor fit]",,,inactive
CC(=O)OCC(=O)[C@@]1(O)[C@H](C)C[C@H]2[C@@H]3CCC4=CC(=O)C=C[C@]4(C)[C@@]3(F)[C@@H](O)C[C@@]21C,inactive,inactive,active: 20.8 µM,,,"inconclusive: 36.9 µM [cytotoxic, single point]","inconclusive: 36.9 µM [cytotoxic, single point]","inconclusive: 23.3 µM [cytotoxic, single point]","inconclusive: 32.9 µM [cytotoxic, single point]",inactive
CCN1CCN(Cc2ccc(-c3cc4c(N[C@H](C)c5ccccc5)ncnc4[nH]3)cc2)CC1,"inconclusive: 23.5 µM [cytotoxic, partial curve]","inconclusive: 7.43 µM [cytotoxic, partial curve, poor fit]",active: 13.5 µM,,active: 0.851 µM,,,,,
CC(C)c1cnn2c(NCc3ccccc3)cc(N[C@@H](CO)[C@H](O)CO)nc12,"inconclusive: 1.87 µM [cytotoxic, partial curve]",active: 0.743 µM,"inconclusive: 0.465 µM [cytotoxic, full curve, poor fit]",,,,active: 0.293 µM,,"inconclusive: 0.827 µM [cytotoxic, full curve]","inconclusive: 0.329 µM [cytotoxic, full curve, poor fit]"
CCOC(=O)[C@H]1O[C@H]1C(=O)N[C@@H](CC(C)C)C(=O)NCCC(C)C,"inconclusive: 20.9 µM [cytotoxic, single point]","inconclusive: 14.8 µM [cytotoxic, partial curve]",,,,,,,,
C#C[C@]1(O)CC[C@@H]2[C@@H]3CCC4=CC(=O)CC[C@@H]4[C@H]3CC[C@@]21CC,"inconclusive: 16.6 µM [cytotoxic, partial curve, poor fit]","inconclusive: 8.33 µM [cytotoxic, partial curve, poor fit]",,,,,,,,
Cc1c(C)c2c(c(C)c1O)CCC(C)(COc1ccc(CC3SC(=O)NC3=O)cc1)O2 (configuration not stated),inactive,inactive,inactive,inactive,inactive,,inactive,"inconclusive: 7.37 µM [cytotoxic, partial curve]",inactive,
CCOc1ccccc1N=Nc1c(C)[nH]n(-c2nc(-c3ccccc3)cs2)c1=O,"inconclusive: 6.62 µM [cytotoxic, partial curve]","inconclusive: 14.8 µM [cytotoxic, partial curve]",,,,,,,,
CC(=O)O[C@]1(C(C)=O)CC[C@H]2[C@@H]3C[C@H](C)C4=CC(=O)CC[C@]4(C)[C@H]3CC[C@@]21C,"inconclusive: 16.8 µM [cytotoxic, single point]","inconclusive: 29.9 µM [cytotoxic, single point]","inconclusive: 18.5 µM [cytotoxic, partial curve]",,,"inconclusive: 36.9 µM [cytotoxic, single point]",inactive,"inconclusive: 11.7 µM [cytotoxic, full curve]","inconclusive: 20.8 µM [cytotoxic, partial curve, poor fit]",
OC[C@H]1O[C@@H](n2cnc3c(=S)nc[nH]c32)[C@H](O)[C@@H]1O,"inconclusive: 3.35 µM [cytotoxic, partial curve]","inconclusive: 9.44 µM [cytotoxic, partial curve]","inconclusive: 6.57 µM [cytotoxic, partial curve]",,"inconclusive: 16.5 µM [cytotoxic, partial curve]",,,"inconclusive: 0.928 µM [cytotoxic, full curve]","inconclusive: 2.61 µM [cytotoxic, full curve]",
N=C(N)c1ccc(OCCCCCOc2ccc(C(=N)N)cc2)cc1,"inconclusive: 10.5 µM [cytotoxic, partial curve]","inconclusive: 15 µM [cytotoxic, partial curve, poor fit] and inconclusive: 16.6 µM [cytotoxic, partial curve]","inconclusive: 23.3 µM [cytotoxic, single point]","inconclusive: 32.9 µM [cytotoxic, single point]","inconclusive: 16.5 µM [cytotoxic, partial curve]",active: 3.29 µM,"inconclusive: 20.8 µM [cytotoxic, single point]",,inactive,"inconclusive: 14.7 µM [cytotoxic, partial curve, poor fit]"
Cn1cnc([N+](=O)[O-])c1Sc1ncnc2nc[nH]c12,"inconclusive: 10.6 µM [cytotoxic, partial curve] and inconclusive: 7.43 µM [cytotoxic, partial curve]","inconclusive: 9.59 µM [cytotoxic, partial curve] and inconclusive: 11.9 µM [cytotoxic, partial curve] and inconclusive: 5.9 µM [cytotoxic, partial curve]","inconclusive: 37.8 µM [cytotoxic, partial curve]",,"inconclusive: 37.8 µM [cytotoxic, partial curve, poor fit]",,"inconclusive: 33.7 µM [cytotoxic, partial curve]","inconclusive: 1.34 µM [cytotoxic, full curve]","inconclusive: 3.78 µM [cytotoxic, full curve]","inconclusive: 6.71 µM [cytotoxic, full curve]"
O=C1NC(=O)C(c2cnc3ccccn23)=C1c1cn2c3c(cccc13)CN(C(=O)N1CCOCC1)CC2,"inconclusive: 5.9 µM [cytotoxic, partial curve]","inconclusive: 14.8 µM [cytotoxic, single point]","inconclusive: 14.7 µM [cytotoxic, partial curve]","inconclusive: 9.27 µM [cytotoxic, full curve]",,"inconclusive: 14.7 µM [cytotoxic, partial curve]","inconclusive: 10.4 µM [cytotoxic, partial curve, poor fit]","inconclusive: 0.0233 µM [cytotoxic, full curve]","inconclusive: 6.57 µM [cytotoxic, partial curve]",active: 2.93 µM
CC(=O)Oc1c(C)c(C)c2c(c1C)CC[C@@](C)(CCC[C@H](C)CCC[C@H](C)CCCC(C)C)O2,inactive,inactive,,,,,,,,
Cc1ccc(S(=O)(=O)Nc2nc3ccccc3nc2Nc2ccc3nsnc3c2)cc1,"inconclusive: 2.57 µM [cytotoxic, partial curve]","inconclusive: 1.29 µM [cytotoxic, full curve]",active: 9.1 µM,,,,"inconclusive: 18.2 µM [cytotoxic, single point]","inconclusive: 10.2 µM [cytotoxic, partial curve]","inconclusive: 18.2 µM [cytotoxic, single point]",
COc1cnc(NS(=O)(=O)c2ccc(N)cc2)nc1,"inconclusive: 26.4 µM [cytotoxic, single point]","inconclusive: 18.7 µM [cytotoxic, partial curve]",,,,,,,,
COc1cc(Cl)cn2c(-c3cccc(NC4CNC4)n3)cnc12,"inconclusive: 9.35 µM [cytotoxic, full curve]","inconclusive: 18.7 µM [cytotoxic, partial curve, poor fit]",,,,,,,,
C[N+](C)([O-])CCNc1ccc(NCC[N+](C)(C)[O-])c2c1C(=O)c1c(O)ccc(O)c1C2=O,"inconclusive: 18.7 µM [cytotoxic, partial curve]","inconclusive: 10.5 µM [cytotoxic, partial curve]","inconclusive: 23.3 µM [cytotoxic, partial curve]","inconclusive: 16.5 µM [cytotoxic, partial curve]","inconclusive: 4.14 µM [cytotoxic, full curve, poor fit]",,"inconclusive: 16.5 µM [cytotoxic, partial curve]","inconclusive: 11.7 µM [cytotoxic, partial curve, poor fit]","inconclusive: 20.8 µM [cytotoxic, single point]",inactive

# Source: PubChem BioAssay (NCATS)
